# Assay results: paper PMC5562746
# Sequences of proteins named here, by UniProt entry; tags and fusion partners are left off.
# UniProt O60566: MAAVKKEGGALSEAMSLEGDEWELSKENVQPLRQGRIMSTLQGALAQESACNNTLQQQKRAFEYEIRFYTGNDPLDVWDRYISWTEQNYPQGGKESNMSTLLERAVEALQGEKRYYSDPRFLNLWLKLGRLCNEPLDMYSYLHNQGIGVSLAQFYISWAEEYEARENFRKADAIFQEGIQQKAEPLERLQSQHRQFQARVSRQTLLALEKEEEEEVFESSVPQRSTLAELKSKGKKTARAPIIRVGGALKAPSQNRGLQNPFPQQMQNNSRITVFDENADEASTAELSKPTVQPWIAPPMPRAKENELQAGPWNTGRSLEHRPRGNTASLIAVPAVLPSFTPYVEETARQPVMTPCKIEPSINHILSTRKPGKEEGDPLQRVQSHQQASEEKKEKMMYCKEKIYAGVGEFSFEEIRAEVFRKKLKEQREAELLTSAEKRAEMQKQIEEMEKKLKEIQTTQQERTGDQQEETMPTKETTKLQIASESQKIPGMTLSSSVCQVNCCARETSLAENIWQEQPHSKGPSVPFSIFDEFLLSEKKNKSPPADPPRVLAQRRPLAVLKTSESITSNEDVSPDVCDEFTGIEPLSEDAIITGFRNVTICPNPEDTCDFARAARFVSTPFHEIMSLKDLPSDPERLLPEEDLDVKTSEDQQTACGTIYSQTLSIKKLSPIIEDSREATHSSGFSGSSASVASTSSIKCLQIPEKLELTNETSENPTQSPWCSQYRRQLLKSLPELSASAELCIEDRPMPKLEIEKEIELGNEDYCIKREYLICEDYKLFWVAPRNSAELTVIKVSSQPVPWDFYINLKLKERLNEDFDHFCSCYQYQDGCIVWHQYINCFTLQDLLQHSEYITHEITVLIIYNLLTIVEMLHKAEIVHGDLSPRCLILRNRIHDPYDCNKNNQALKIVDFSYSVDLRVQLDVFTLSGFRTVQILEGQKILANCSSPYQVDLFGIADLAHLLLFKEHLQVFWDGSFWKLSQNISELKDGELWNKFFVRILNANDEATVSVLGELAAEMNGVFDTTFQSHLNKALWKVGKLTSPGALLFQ
# UniProt O14777: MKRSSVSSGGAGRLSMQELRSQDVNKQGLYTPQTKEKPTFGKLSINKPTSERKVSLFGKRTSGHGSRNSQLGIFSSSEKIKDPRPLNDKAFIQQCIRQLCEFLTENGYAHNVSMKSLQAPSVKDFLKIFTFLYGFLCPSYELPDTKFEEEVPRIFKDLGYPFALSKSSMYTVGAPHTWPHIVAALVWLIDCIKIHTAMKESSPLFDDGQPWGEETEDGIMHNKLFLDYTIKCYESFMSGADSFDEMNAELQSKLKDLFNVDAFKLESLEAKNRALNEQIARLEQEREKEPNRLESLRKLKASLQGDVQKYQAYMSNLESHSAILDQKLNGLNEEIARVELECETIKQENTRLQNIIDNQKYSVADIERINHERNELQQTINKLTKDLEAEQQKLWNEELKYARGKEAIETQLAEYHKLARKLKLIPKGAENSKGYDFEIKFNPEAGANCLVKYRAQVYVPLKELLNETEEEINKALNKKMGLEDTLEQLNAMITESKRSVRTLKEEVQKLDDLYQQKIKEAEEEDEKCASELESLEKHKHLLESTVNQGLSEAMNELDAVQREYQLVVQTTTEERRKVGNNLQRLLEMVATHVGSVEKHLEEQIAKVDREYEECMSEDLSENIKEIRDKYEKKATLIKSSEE
# No constants are given. Whether binding was seen depends on the method and setting. For some of these results: In cells and extracts the contact can be indirect. Some results given as binding are weak or reduced against the parent protein; the word gives no strength. For some of these results: Sequences can lack the tags named with a protein.
# T1: GFP-Mps1 (human) (UniProt P33981)
# T1 sequence: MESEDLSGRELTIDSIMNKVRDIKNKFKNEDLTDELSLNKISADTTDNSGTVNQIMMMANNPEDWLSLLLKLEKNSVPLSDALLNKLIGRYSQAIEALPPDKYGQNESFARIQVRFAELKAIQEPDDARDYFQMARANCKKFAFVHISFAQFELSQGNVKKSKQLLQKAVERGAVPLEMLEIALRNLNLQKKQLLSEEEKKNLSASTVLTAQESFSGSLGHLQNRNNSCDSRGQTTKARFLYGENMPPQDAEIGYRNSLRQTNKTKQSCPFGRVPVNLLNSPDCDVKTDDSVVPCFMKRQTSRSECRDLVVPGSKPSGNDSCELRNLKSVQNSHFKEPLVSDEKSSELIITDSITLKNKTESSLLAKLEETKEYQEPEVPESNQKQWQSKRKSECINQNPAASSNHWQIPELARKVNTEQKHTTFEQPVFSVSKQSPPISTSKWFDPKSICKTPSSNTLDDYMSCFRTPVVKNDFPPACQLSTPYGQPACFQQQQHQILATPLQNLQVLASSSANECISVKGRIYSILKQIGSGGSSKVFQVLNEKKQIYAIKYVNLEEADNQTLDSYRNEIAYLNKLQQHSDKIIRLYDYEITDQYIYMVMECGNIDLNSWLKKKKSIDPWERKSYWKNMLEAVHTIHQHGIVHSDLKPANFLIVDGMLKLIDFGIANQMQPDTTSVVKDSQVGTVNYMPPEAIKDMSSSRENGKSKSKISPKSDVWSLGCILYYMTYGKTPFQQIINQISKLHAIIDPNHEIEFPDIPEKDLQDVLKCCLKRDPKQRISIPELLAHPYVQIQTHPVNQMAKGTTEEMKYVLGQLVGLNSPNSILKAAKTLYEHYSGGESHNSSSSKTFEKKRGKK
# T2: Flag-tagged Mps1 (wild type) (human) (UniProt P33981)
# T2 sequence: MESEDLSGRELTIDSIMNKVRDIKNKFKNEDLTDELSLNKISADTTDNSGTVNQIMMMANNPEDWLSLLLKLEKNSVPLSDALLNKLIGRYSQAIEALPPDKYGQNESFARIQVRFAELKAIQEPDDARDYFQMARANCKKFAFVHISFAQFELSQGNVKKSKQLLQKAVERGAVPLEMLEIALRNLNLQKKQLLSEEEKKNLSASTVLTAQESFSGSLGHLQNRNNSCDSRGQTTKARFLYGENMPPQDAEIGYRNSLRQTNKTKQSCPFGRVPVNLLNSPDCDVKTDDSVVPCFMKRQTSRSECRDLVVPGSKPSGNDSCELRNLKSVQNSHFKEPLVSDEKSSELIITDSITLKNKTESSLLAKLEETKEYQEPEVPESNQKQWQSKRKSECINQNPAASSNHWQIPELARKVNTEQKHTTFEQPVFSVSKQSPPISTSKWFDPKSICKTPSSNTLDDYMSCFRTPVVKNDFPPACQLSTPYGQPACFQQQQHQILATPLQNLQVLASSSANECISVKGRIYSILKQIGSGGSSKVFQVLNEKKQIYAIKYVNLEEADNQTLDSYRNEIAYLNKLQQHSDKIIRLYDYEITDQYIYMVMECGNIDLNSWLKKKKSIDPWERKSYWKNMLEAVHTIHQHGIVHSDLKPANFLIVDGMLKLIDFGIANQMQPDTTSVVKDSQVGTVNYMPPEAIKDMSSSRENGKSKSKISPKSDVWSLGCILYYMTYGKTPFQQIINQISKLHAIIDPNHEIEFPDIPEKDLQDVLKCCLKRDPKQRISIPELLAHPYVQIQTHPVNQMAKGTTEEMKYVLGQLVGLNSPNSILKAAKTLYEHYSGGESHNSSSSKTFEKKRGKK
# T3: Flag-tagged Mps1 kinase-dead (D664A) (human) (UniProt P33981)
# T3 sequence: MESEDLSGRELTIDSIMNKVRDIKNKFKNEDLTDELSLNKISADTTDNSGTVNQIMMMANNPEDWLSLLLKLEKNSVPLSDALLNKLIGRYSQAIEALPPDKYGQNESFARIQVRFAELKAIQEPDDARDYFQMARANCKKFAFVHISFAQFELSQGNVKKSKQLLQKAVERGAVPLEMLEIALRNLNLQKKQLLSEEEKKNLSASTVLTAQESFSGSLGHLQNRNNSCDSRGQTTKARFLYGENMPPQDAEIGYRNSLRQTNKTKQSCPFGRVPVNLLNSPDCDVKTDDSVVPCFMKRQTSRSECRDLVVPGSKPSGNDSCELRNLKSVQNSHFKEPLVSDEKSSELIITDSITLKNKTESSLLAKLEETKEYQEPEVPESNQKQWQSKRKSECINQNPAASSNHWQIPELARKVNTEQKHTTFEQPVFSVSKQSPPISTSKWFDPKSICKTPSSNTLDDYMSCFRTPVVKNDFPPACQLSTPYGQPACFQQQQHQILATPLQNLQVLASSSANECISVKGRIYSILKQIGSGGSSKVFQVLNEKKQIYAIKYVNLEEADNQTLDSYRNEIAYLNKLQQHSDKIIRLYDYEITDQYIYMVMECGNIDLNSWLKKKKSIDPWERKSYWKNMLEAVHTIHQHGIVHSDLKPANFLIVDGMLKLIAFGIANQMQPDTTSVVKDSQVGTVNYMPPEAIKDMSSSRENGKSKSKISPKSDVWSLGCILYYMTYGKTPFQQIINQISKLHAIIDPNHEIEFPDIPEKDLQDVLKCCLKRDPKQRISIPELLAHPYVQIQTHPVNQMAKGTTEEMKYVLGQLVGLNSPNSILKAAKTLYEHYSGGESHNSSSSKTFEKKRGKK
# Tests used:
# [1] = biological target: GST-tagged Plk1, full length (human) (UniProt P53350); experiment: pull-down; GST-tagged Plk1 constructs bound to glutathione-Sepharose beads incubated with mitotic cell lysates; washes with lysis buffer containing 500 mM and 150 mM NaCl; immunoblotting; only the target purified
# GFP-Mps1 (human) = biological target: T1, GFP-Mps1 (human); experiment: co-IP; GFP-Mps1 expressed in HeLa cells, immunoprecipitated with anti-GFP antibody, blot for Hec1; controls and cells treated with reversine and/or BI-2536
# [2] = biological target: T2, Flag-tagged Mps1 (wild type) (human); experiment: co-IP; Flag-tagged Mps1 and Plk1 purified from insect cells, immunoprecipitation with anti-Flag antibody; both purified
# [3] = biological target: T3, Flag-tagged Mps1 kinase-dead (D664A) (human); experiment: as above
Molecule,binding [1],binding (GFP-Mps1 (human)),binding [2],binding [3]
BubR1 (from UniProt O60566 1-1050),binds,–,–,–
Hec1 (from UniProt O14777 1-642),–,binds,–,–
"Plk1 (wild type, un-labelled) (from UniProt P53350 1-603)",–,–,no binding,no binding
Plk1 kinase-dead (D194A) (from UniProt P53350 1-603),–,–,no binding,no binding
"Mps1 (endogenous) (protein, UniProt P33981 1-857) MESEDLSGRELTIDSIMNKVRDIKNKFKNEDLTDELSLNKISADTTDNSGTVNQIMMMANNPEDWLSLLLKLEKNSVPLSDALLNKLIGRYSQAIEALPPDKYGQNESFARIQVRFAELKAIQEPDDARDYFQMARANCKKFAFVHISFAQFELSQGNVKKSKQLLQKAVERGAVPLEMLEIALRNLNLQKKQLLSEEEKKNLSASTVLTAQESFSGSLGHLQNRNNSCDSRGQTTKARFLYGENMPPQDAEIGYRNSLRQTNKTKQSCPFGRVPVNLLNSPDCDVKTDDSVVPCFMKRQTSRSECRDLVVPGSKPSGNDSCELRNLKSVQNSHFKEPLVSDEKSSELIITDSITLKNKTESSLLAKLEETKEYQEPEVPESNQKQWQSKRKSECINQNPAASSNHWQIPELARKVNTEQKHTTFEQPVFSVSKQSPPISTSKWFDPKSICKTPSSNTLDDYMSCFRTPVVKNDFPPACQLSTPYGQPACFQQQQHQILATPLQNLQVLASSSANECISVKGRIYSILKQIGSGGSSKVFQVLNEKKQIYAIKYVNLEEADNQTLDSYRNEIAYLNKLQQHSDKIIRLYDYEITDQYIYMVMECGNIDLNSWLKKKKSIDPWERKSYWKNMLEAVHTIHQHGIVHSDLKPANFLIVDGMLKLIDFGIANQMQPDTTSVVKDSQVGTVNYMPPEAIKDMSSSRENGKSKSKISPKSDVWSLGCILYYMTYGKTPFQQIINQISKLHAIIDPNHEIEFPDIPEKDLQDVLKCCLKRDPKQRISIPELLAHPYVQIQTHPVNQMAKGTTEEMKYVLGQLVGLNSPNSILKAAKTLYEHYSGGESHNSSSSKTFEKKRGKK",no binding,–,–,–
